Test results taken from PubChem BioAssay AID624296 (National Center for Advancing Translational Sciences (NCATS), 2012).
Where “and” joins values, the source holds several entries; their conditions need not be identical. Identical values can stand only once. Screen size: about 350,000 compounds; about 9,900 (2.8%) were called active. The shares of active, inactive and inconclusive entries below differ from those in the screen. Calls come from the whole dose curve; as a rule, active = well fitted activation curve with a large enough effect; inconclusive = small, poorly fitted or top-dose-only effect; inactive = no such curve, though single readings can be large or run the other way. Potencies beside an inconclusive call are fits to weak or partial responses and may not hold up.

test: A quantitative high throughput screen for small molecules that induce DNA re-replication in MCF 10a normal breast cells.; note: nearly all actives have a fitted effect of over 50% in size; for activity, positive = re-replication: % of control where 0% means no effect; conditions: MCF 10A DNA re-replication, Hoechst nuclear intensity, 48 h; activity, positive = re-replication: at 46.1 µM (top of the series)
Potency is the fitted concentration of half-maximal effect; tags give direction and shape of the fitted curve.

SMILES	Potency	activity, positive = re-replication
NC(=O)CSc1ncnc2c1nnn2Cc1ccc(F)cc1	inconclusive: 23.1 µM [activator, single point]	
CCN(CC)CCNC(=O)CCc1c(C)nc2c(c(C)nn2-c2ccc(C)cc2)c1C	inconclusive: 14.6 µM [activator, partial curve, poor fit]	
Oc1ccc(/C=N/N=C(c2ccccc2)c2ccccc2)c(O)c1O	active: 20.6 µM	
Cc1occc1C(=O)O/N=C(\N)c1ccccc1		inactive: -3.49%
Cc1cc(NC(=O)CCNS(=O)(=O)c2cc(Br)cnc2N)ccc1Br		inactive: -1.61%
O=c1cc(CSc2ccc(Cl)cc2)nc(-c2ccncc2)[nH]1	inconclusive: 1.46 µM [activator, partial curve, poor fit]	
CC(=O)C(/C=N/c1ncc(C(F)(F)F)cc1Cl)=C(\C)O	inconclusive: 0.13 µM [activator, full curve, poor fit]	
CC(NC(=O)c1ccc([N+](=O)[O-])cc1Cl)C1CC2CCC1C2 (stereo unspecified)		inactive: 7.09%
Cc1ccc(C(=O)c2ncc[nH]2)cc1		inactive: -1.03%
O=S(=O)(NCC(c1ccccc1)N1CCNCC1)c1ccc(Cl)cc1 (stereo unspecified)	inconclusive: 23.1 µM [activator, single point]	
Cn1cnnc1SCC(=O)Nc1ccc(F)cc1		inactive: -10.5%
Cn1c(=NC(=O)COc2ccccc2)sc2cc(F)cc(F)c21	inconclusive: 6.51 µM [activator, single point]	
Cc1nc(SCc2nc3c(F)cccc3[nH]2)c2oc3ccccc3c2n1	inconclusive: 10.3 µM [activator, partial curve]	
CCCN(CCC)C(=S)NC(=O)c1ccc(Cl)cc1Cl	inconclusive: 29.1 µM [activator, single point]	
Cc1cccc(C2c3[nH]c4ccccc4c3CCN2Cc2ccc(C)s2)n1 (stereo unspecified)	inconclusive: 29.1 µM [activator, single point]	
CC(/C=C\C=C\c1ccccc1)=N\NC(=O)c1cncc(Br)c1	inconclusive: 29.1 µM [activator, partial curve, poor fit]	
Cc1ccc(C(=O)COc2ccccc2N2C(=O)c3ccccc3C2=O)cc1		inactive: -7.07%
O=C(Nc1nnc(-c2ccccc2Cl)o1)c1ccc(S(=O)(=O)N2CCCCCC2)cc1	active: 3.98 µM	
CCCCc1ccc(NC(=S)N2CCN(C(=O)c3ccco3)CC2)cc1	inconclusive: 29.1 µM [activator, single point]	
Cc1cc(C)c2c(n1)nn1c(NCCCN(C)C)cc(C)nc21	inconclusive: 1.03 µM [activator, full curve, poor fit]	
CCOC(=O)N1CCN(C(=O)CCCn2c(=S)[nH]c3ccsc3c2=O)CC1		inactive: -7.92%
O=C(COC(=O)/C=C/C(=O)N1CCN(c2ccccc2)CC1)NC(c1ccccc1)c1ccccc1	inconclusive: 1.84 µM [activator, full curve]	
COc1ccc(N2C(N)=NC(N)=NC23CCCC3)cc1		inactive: 16.2%
COc1cccc(CNCCc2c[nH]c3ccccc23)c1OCc1ccc(F)cc1	inconclusive: 18.4 µM [activator, single point]	

SMILES	Potency	activity, positive = re-replication
CCCCCC(=O)Nc1ccc(N2CCN(C(=O)c3ccccc3)CC2)cc1	inconclusive: 32.6 µM [activator, partial curve, poor fit]	
COc1ccc(C2c3ccc(O)cc3Oc3ncn(Cc4ccco4)c(=N)c32)cc1 (stereo unspecified)	inconclusive: 14.6 µM [activator, partial curve]	
Nc1nnnn1/N=C\c1ccc(Cl)c([N+](=O)[O-])c1	inconclusive: 18.4 µM [activator, partial curve, poor fit]	
CCCCOc1ccc(/C=N/NC(=O)c2nnn(-c3nonc3N)c2C)cc1	inconclusive: 29.1 µM [activator, single point]	
COc1ccccc1NS(=O)(=O)c1ccc(C(=O)Nc2ncccc2O)cc1	inconclusive: 6.51 µM [activator, single point]	
CCOC(=O)C1CCCN(c2nc3ccccc3nc2NS(=O)(=O)c2ccc(C)cc2)C1 (stereo unspecified)		inactive: -9.97%
COc1ccccc1NCC(=O)N/N=C/c1c(O)ccc2ccccc12	inconclusive: 29.1 µM [activator, single point]	
CCOC(=O)CC(=O)Nc1ncnc2c1C(c1ccccc1)c1c(ccc3ccccc13)O2 (stereo unspecified)		inactive: -17.6%
Cc1cc(Cl)cc(C)c1OCCCCN1CCOCC1	inconclusive: 29.1 µM [activator, single point]	
CCCN(CCC)C(=O)c1ccc2c(=O)n(Cc3ccco3)c(=S)[nH]c2c1	inconclusive: 29.1 µM [activator, single point]	
CCc1ccc(/C=C2\SC(=S)N(CCCC(=O)Nc3ccc(C(=O)O)cc3)C2=O)cc1		inactive: 17.2%
CCOC(=O)c1c(-c2ccc(C)cc2)csc1/N=C(\C)C1=C(O)c2ccccc2C1=O	inconclusive: 7.31 µM [activator, partial curve, poor fit]	
Cc1cc(N/N=C2/CCCc3ccccc32)nc2ccccc12	inconclusive: 14.6 µM [activator, single point]	
Cc1oc(-c2ccccc2Cl)nc1CS(=O)CC(=O)NCCCN1CC(C)CC(C)C1 (stereo unspecified)		inactive: 4.16%
CCc1ccc(NC(=O)N(Cc2cccnc2)Cc2ccco2)cc1		inactive: 1.44%
Cc1ccc(Sc2ccc(NC(=O)CCl)cc2)c(C)c1	inconclusive: 23.1 µM [activator, single point]	
O=c1cc(-c2ccccc2)[nH]c2cc(F)ccc12	active: 1.3 µM	
O=C(C1=C[C@@H](c2coc3ccccc3c2=O)C[C@@H](OCc2ccc(CO)cc2)O1)N1CCCCCCC1	active: 1.3 µM	
O=C(c1cc2cc(F)ccc2[nH]1)N1CCN(Cc2ccc3c(c2)OCO3)CC1	inconclusive: 23.1 µM [activator, single point]	
CN(C)c1ccc(/C=N/NC(=O)COc2ccccc2)cc1		inactive: 0.546%
[O-]/[N+](=C\c1ccccc1)c1ccccc1	inconclusive: 0.0651 µM [activator, full curve, poor fit]	
COc1ccc(C(=O)C(CCC(CNC(C)(C)C)C(=O)c2ccc(OC)cc2)CNC(C)(C)C)cc1 (stereo unspecified)	active: 5.8 µM	
CCCCC(CC)C(=O)Oc1ccc(O)c(C(C)(C)C)c1 (stereo unspecified)	active: 4.11 µM	
CCCCN(CCCC)C(=S)NC(=O)c1ccccc1Cl		inactive: 0.068%

SMILES	Potency	activity, positive = re-replication
c1ccc(CNc2ccc3ccccc3n2)nc1	inconclusive: 23.1 µM [activator, single point]	
O=C(/C=C/c1ccccc1)c1cc(Br)ccc(=O)c1O	inconclusive: 3.26 µM [activator, full curve, poor fit]	
O=C(c1csc2ccccc12)N1CCN(c2ccccn2)CC1	inconclusive: 16.4 µM [activator, single point]	
COc1ccc2sc(-c3ccccc3OC)c(-c3ccc(OCCN(C)C)cc3)c2c1	inconclusive: 11.6 µM [activator, partial curve, poor fit]	
CC(OC(=O)C1CCN(S(=O)(=O)c2ccc(Cl)cc2)CC1)C(=O)NC1CCCCC1C (stereo unspecified)	inconclusive: 29.1 µM [activator, partial curve, poor fit]	
CCc1ccc(C(=O)CN2C(=O)NC(C)(CCc3ccccc3)C2=O)cc1 (stereo unspecified)	inconclusive: 29.1 µM [activator, partial curve, poor fit]	
O=C(NCC(c1ccco1)N1CCOCC1)c1ccccc1 (stereo unspecified)	inconclusive: 4.11 µM [activator, single point]	
Cc1ccc(CNC(=O)C(Cc2ccccc2)NS(=O)(=O)c2ccc(Br)s2)cc1 (stereo unspecified)	inconclusive: 20.6 µM [activator, single point] and inconclusive: 25.9 µM [activator, single point]	
COc1ccc(O)c(C(=O)c2cc(SCC(=O)O)c3nc4sc5c(c4c(=O)n3c2)CCCC5)c1		inactive: 0.424%
Cc1cc(F)ccc1S(=O)(=O)NCC1CC2CCC1C2 (stereo unspecified)		inactive: 14.9%
O=c1c2ccccc2nc(N/N=C/c2c(O)ccc3ccccc23)n1O	active: 3.26 µM	
Cc1cc(C)nc(N2CCCC(C(=O)Nc3ccc4nc(C)c(C)nc4c3)C2)n1 (stereo unspecified)		inactive: 6.4%
COc1ccc(NC(=O)C2CCCN(S(=O)(=O)c3c(C)[nH]c(=O)[nH]c3=O)C2)cc1OC (stereo unspecified)		inactive: -6.51%
Cc1ccc(C)c(-c2nn(-c3cc(N4CCN(CCO)CC4)ccc3[N+](=O)[O-])c(=O)c3ccccc23)c1	inconclusive: 14.6 µM [activator, partial curve, poor fit]	
CC(O)(CS(=O)(=O)Cc1ccccc1)C(=O)Nc1cccc(C(F)(F)F)c1 (stereo unspecified)		inactive: 17.7%
O=[N+]([O-])c1cccc(S(=O)(=O)Nc2ccc3cn[nH]c3c2)c1		inactive: -0.393%
c1ccc(CCNc2ncnc3c2cnn3-c2ccccc2)cc1	inconclusive: 20.6 µM [activator, single point]	
COC(=O)Cn1cnc2c(cnn2-c2ccccc2)c1=O	inconclusive: 1.03 µM [activator, single point]	
CC(Sc1nc(-c2ccccc2)cc(C(F)(F)F)n1)C(=O)Nc1sc2c(c1C(N)=O)CCC2 (stereo unspecified)		inactive: 5.36%
CC#CC(=O)N1CCC(CO)(CCc2ccccc2)CC1		inactive: 3.52%
O=C(CN(C(=O)c1csnn1)c1cccc(C(F)(F)F)c1)NC1CCCC1		inactive: -0.864%
CC1CCCC(C)N1C(=O)c1ccccc1Nc1ccc(SC(F)F)cc1 (stereo unspecified)	inconclusive: 23.1 µM [activator, partial curve, poor fit]	
COc1ccc(CC(=O)Nc2c(C(=O)N3CCN(c4ccccc4)CC3)oc3ccccc23)cc1OC	inconclusive: 18.4 µM [activator, partial curve, poor fit]	
